# Results as given in patent US20250295802A1, “HER3 ANTIBODY-DRUG CONJUGATE AND USE THEREOF” (DUALITY BIOLOGICS (SUZHOU) CO., LTD., priority 2022, published 2025).
# B1: ADC-1-X2: anti-Her3 antibody hu3F8-2 conjugated with linker-payload X2, DAR 7.53 (conjugate)
# heavy: QVQLQESGPGLVKPSETLSLTCTVSGYSITSAYYWNWIRQPFGKGLEWMGYISYDGRNNFNPSLKNRVTISRDTSKNQFSLKLSSVTAADTAVYYCARDGDYDYFDYWGQGTTVTVSS[human IgG1 constant region left out]
# light: DIQMTQSPSSLSASVGDRVTITCRASQDISNYLNWYQQKPGKAPKLLIYYTSILHSGVPSRFSGSGSGTDYTFTISSLQPEDIATYFCQQGDTLPPTFGGGTKLEIKRTVAAPSVFIFPPSDEQLKSGTASVVCLLNNFYPREAKVQWKVDNALQSGNSQESVTEQDSKDSTYSLSSTLTLSKADYEKHKVYACEVTHQGLSSPVTKSFNRGEC
# How the values were obtained:
# Type in all cases: in vivo, mouse
# [1] = tested on: HCC1569 breast cancer cells subcutaneous xenograft; test: Efficacy in HCC1569 tumor-bearing mice; conditions: 1 mg/kg tail vein 1 time per week; end of experiment, 21 days
# Method: To evaluate anti-tumor effect of the antibody-drug conjugates of the present application in a female NOD/SCID mouse model with subcutaneous xenograft of HCC1569 breast cancer cells. • Blank control (negative control group): […] The growth of the tumors was monitored. […] The day of administration for each group was defined as day 0. The administration was performed by tail vein injection 1 time per week, and the experiment ended 21 days after the administration. The tumor volume and weight were measured twice a week, and the data were recorded. At the end of the experiment, mice were euthanized and tumor growth inhibition TGI % was calculated as follows: (TGI=(1−(Ti−T0)/(Vi−V0))). Ti: mean tumor volumes of the treatment groups and the positive control group on day i of administration; TO: mean tumor volumes of the treatment groups and the positive control group on day 0 of administration; Vi: mean tumor volume of the negative control group on day i of administration; V0: mean tumor volume of the negative control group on day 0 of administration. Data were analyzed using Excel 2016 statistical software, wherein the mean value was calculated as avg; the SD value was calculated as STDEV; and the P value of the difference between groups was calculated as TTEST.
# [2] = tested on: human lung cancer LU1542 subcutaneous xenograft; test: Efficacy in human lung cancer LU1542 subcutaneous xenograft tumor-bearing mice; conditions: tail vein 1 time, end of experiment, 28 days
# Method: (§1) To evaluate the anti-tumor effect of the antibody-drug conjugates of the present application in human lung cancer LU1542 subcutaneous xenograft tumor-bearing mice using female BALB/c nude mice as test animals. • Blank control (negative control group): […] The day of administration for each group was defined as day 0. The administration was performed by tail vein injection for 1 time, and the experiment ended 28 days after the administration. The tumor volume and weight were measured twice a week, and the data were recorded. At the end of the experiment, mice were euthanized and tumor growth inhibition TGI % was calculated as follows: (TGI=(1−(Ti−T0)/(Vi−V0))). Ti: mean tumor volumes of the treatment groups and the positive control group on day i of administration; T0: mean tumor volumes of the treatment groups and the positive control group on day 0 of administration; Vi: mean tumor volume of the negative control group on day i of administration; V0: mean tumor volume of the negative control group on day 0 of administration. Data were analyzed using Excel 2016 statistical software, wherein the mean value was calculated as avg; the SD value was calculated as STDEV; and the P value of the difference between groups was calculated as TTEST.
# Colo205 xenograft = test: Efficacy in Colo205 tumor-bearing mice; conditions: 1 mg/kg tail vein 1 time every two weeks; end of experiment, 22 days
# Method: To evaluate the anti-tumor effect of the antibody-drug conjugates of the present application using BALB/c nude mice as test animals; • Blank control (negative control group): […] Colo205 cells were subcutaneously inoculated into the right flank of the mice, 1×10^7 cells (100 μL/mouse). When the tumors grew to 80-120 mm^3, the animals were randomly grouped, 5 animals per group. The day of administration for each group was defined as day 0. The administration was performed by tail vein injection 1 time every two weeks, and the experiment ended 22 days after the administration. The tumor volume and weight were measured twice a week, and the data were recorded. At the end of the experiment, mice were euthanized and tumor growth inhibition TGI % was calculated as follows: (TGI=(1−(Ti−T0)/(Vi−V0))). Ti: mean tumor volumes of the treatment groups and the positive control group on day i of administration; T0: mean tumor volumes of the treatment groups and the positive control group on day 0 of administration; Vi: mean tumor volume of the negative control group on day i of administration; V0: mean tumor volume of the negative control group on day 0 of administration. Data were analyzed using Excel 2016 statistical software, wherein the mean value was calculated as avg; the SD value was calculated as STDEV; and the P value of the difference between groups was calculated as TTEST.
# NCI-H441 xenograft = test: Efficacy in NCI-H441 lung cancer cell tumor-bearing mice; conditions: tail vein 1 time, 28 days
# Method: as §1, with “Tumor-Bearing Mice Objective To” for “To”, “NCI-H441” for “human lung cancer LU1542 subcutaneous xenograft”, “male NU/NU” for “female BALB/c”, “[…] The test mice were inoculated subcutaneously on the right dorsum with 5×10^6 NCI-H441 cells, and the cells were resuspended in 0.1 mL of PBS and Matrigel (1:1). The growth of the tumors was monitored periodically.” for “• Blank control (negative control group):”, “(TGI=(1−(Ti−T0)/(Vi−V0))).” left out
molecule,measurement,setting,value
B1,Mean tumor volume,[1],25.84 ± 14.38 mm^3
same,Tumor growth inhibition %,[1],97.60%
same,Mean tumor volume,[2]; 3 mg/kg,461.39 ± 106.26 mm^3
same,Tumor growth inhibition %,[2]; 3 mg/kg,77.50%
same,Mean tumor volume,[2]; 10 mg/kg,302.78 ± 129.69 mm^3
same,Tumor growth inhibition %,[2]; 10 mg/kg,88.49%
same,Mean tumor volume,Colo205 xenograft,263.20 ± 105 mm^3
same,Tumor growth inhibition %,Colo205 xenograft,49.09%
same,T/C (%),NCI-H441 xenograft; dose 0.3 mg/kg,61.91%
same,TGI (%),NCI-H441 xenograft; dose 0.3 mg/kg,38.09%
same,Tumor volume (mean ± SEM),NCI-H441 xenograft; dose 0.3 mg/kg,546.52 ± 109.10
same,T/C (%),NCI-H441 xenograft; dose 1 mg/kg,18.35%
same,TGI (%),NCI-H441 xenograft; dose 1 mg/kg,81.65%
same,Tumor volume (mean ± SEM),NCI-H441 xenograft; dose 1 mg/kg,162.00 ± 42.47
